This note sets out measurements from the supplement of paper PMC8728848.

The other results are listed elsewhere or left out.

Common to all, as to test: glycan array binding signal (z-score within array); higher = stronger binding
Common to all, as to conditions: glycan notation: IUPAC condensed, linker removed

One experiment concerns the target Glc(b1-4)Glc. In a few lines:
(§1)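 The binding signal is a Z-score computed within each array. Data were drawn from 3228 arrays in the Consortium for Functional Glycomics database, restricted to those with a known protein sequence. Scores were averaged over arrays of the same protein sequence at different concentrations or buffers, and over linkers, and negative values can be taken as non-binding.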

The target in another experiment is Glc(b1-6)Glc. In outline: as §1
A further experiment concerns the target GlcA(b1-3)Gal. In a few lines:
as §1

The target of a further experiment is GlcA(b1-3)GlcNAc. In outline: as §1
Another experiment has as its target GlcA(b1-6)Gal. In outline: as §1
For experiment [1], the target named is GlcA3S(b1-3)Gal(b1-4)GlcNAc(b1-2)Man. In a few lines:
as §1

The target in experiment [2] is GlcA3S(b1-3)Gal(b1-4)GlcNAc(b1-3)Gal(b1-4)Glc. In outline:
as §1

Experiment [3] deals with GlcNAc(a1-3)Gal(b1-4)GlcNAc. In outline: as §1
Experiment [4] has as its target GlcNAc(a1-4)Gal(b1-3)GlcNAc. In a few lines:
as §1

The target in experiment [5] is GlcNAc(a1-4)Gal(b1-4)GalNAc. In a few lines: as §1
Experiment [6] has as its target GlcNAc(a1-4)Gal(b1-4)GlcNAc. In a few lines:
as §1

Experiment [7] concerns the target GlcNAc(a1-4)Gal(b1-4)GlcNAc(b1-3)Gal(b1-4)Glc. In a few lines:
as §1

In experiment [8] the target is GlcNAc(a1-4)Gal(b1-4)GlcNAc(b1-3)Gal(b1-4)GlcNAc. In outline: as §1
For experiment [9], the target named is GlcNAc(a1-4)Gal(b1-4)GlcNAc(b1-3)Gal(b1-4)GlcNAc(b1-3)Gal(b1-4)GlcNAc. In outline:
as §1

For experiment [10], the target named is GlcNAc(a1-4)Gal(b1-4)GlcNAc(b1-3)Gal(b1-4)[Fuc(a1-3)]GlcNAc(b1-3)Gal(b1-4)[Fuc(a1-3)]GlcNAc. In a few lines: as §1
In experiment [11] the target is GlcNAc(a1-6)Gal(b1-4)GlcNAc. In outline: as §1
Experiment [12] concerns the target GlcNAc(b1-2)Gal(b1-3)GalNAc. In a few lines: as §1
Experiment [13] concerns the target GlcNAc(b1-2)Man(a1-3)[GlcNAc(b1-2)Man(a1-6)]Man(b1-4)GlcNAc(b1-4)GlcNAc. In a few lines:
as §1

Experiment [14] concerns the target GlcNAc(b1-2)Man(a1-3)[GlcNAc(b1-2)Man(a1-6)]Man(b1-4)GlcNAc(b1-4)[Fuc(a1-6)]GlcNAc. In a few lines:
as §1

The target of experiment [15] is GlcNAc(b1-2)Man(a1-3)[GlcNAc(b1-4)][GlcNAc(b1-2)Man(a1-6)]Man(b1-4)GlcNAc(b1-4)GlcNAc. In a few lines: as §1
Experiment [16] addresses GlcNAc(b1-2)Man(a1-3)[GlcNAc(b1-4)][GlcNAc(b1-2)Man(a1-6)]Man(b1-4)GlcNAc(b1-4)[Fuc(a1-6)]GlcNAc. In outline:
as §1

Experiment [17] has as its target GlcNAc(b1-2)[GlcNAc(b1-4)]Man(a1-3)[GlcNAc(b1-2)Man(a1-6)]Man(b1-4)GlcNAc(b1-4)GlcNAc. In a few lines:
as §1

B1: InvD YPIII (Yersinia pseudotuberculosis), B1JSC0 (protein)
chain: MIKYFSFFKKPEPIVGILPNRQSHHILPTHIRRVAWGTLLLQLFIPLSVSFSPAIAAMKASKADTMVSYSSTEPYVLGSGETVAMVAKKYGITVDELKKINIYRTFSRPFTALTTGDEIDIPRKASPFSVDNNKDNRLSVENTLAGHAVAGATALSNGDVAKSGERMVRSAASNEFNNSAQQWLSQFGTARVQLNINDDFHLDGSAADVLIPLYDNEKSILFTQLGARNKDSRNTVNMGAGVRTFQGNWMYGANTFFDNDLTGKNRRIGVGAEAWTDYLKLSANNYFGITDWHQSRDFIDYNERPANGYDLRAEAYLPSYPQLGGKAMYEKYRGDDVALFGKDNRQKNPHAITAGVNYTPIPLVTIGAEHRAGKGGQNDSNINFQLNYRLGETWQSHIDPSAVAASRTLAGSRYDLVERNNHIVLDYQKQNLVRLSLPDSLAGDPFSQLSVTAQVTATHGLERIDWQSAELMAAGGVLKQTSKNGLEITLPEYQMNRTGGNSYILNAIAYDTQGNASSQASMLITVNAQKINIANSTLVAVPINIEANNSDTSVVTLTLKDDNNIPVTGQDVTFLSPLGTLSAMTDSGNGVYTATLTAGTVSGTTAVSSNINGSALDMTPATVTLNGNSGELSITHSMLVAAPVNIEANGSDTSVVTLTLRDSNNNPVTGQTVTFAGTLGTLGAVTEGSSGVYTATLTAGIMVGTSSITASVNSTALGVTPATVTLNGDSGNLSTTNSTLVAAPVNIEANSSDTSVVTLTLRDNNNNPVTGQTVVFTSTLGTLGNVTEQASGVYTATLTAGTVSGVASLSVSVGGNALGVTPATVTLNGDSGNLSTTNSTLVAAPVNIEANSSDTSVVTLTLRDNNNNPVTGQTVNFAGTLGTLGTVSEGSSGVYTTTLTAGTVAGVASLSVNVGGNALGVTPATVTLNGNSGNLSATNSTLVAAPVNIEANSSDTSVVTLTLRDNNNNPVTGQTVAFTSTLGTLGNVTEQASGVYTATLTAGTVSGVASLSVSVNSNALGVTPATVTLNGDSGNLSTTNSTLVAAPVNIEANSSDTSVVTLTLRDNNNNPVTGQTVAFTSTLGTLGNVTEQASGLYTATLTAGTVSGVASLSVNVGGNALGVTPATVTLNGDSGNLSATNSTLVAAPVNIEANSSDTSVVTLTLRDNNNNPVTGQTVAFTSTLGTLGNVTEQASGLYTATLTAGTVSGVASLSVNVGGTALGVTPATVTLNGDSGNLSTTNSTLVAAPVNIEANSSDTSVVTLTLRDNNNNPVTGQTVAFTSTLGTLGNVTEQASGLYTATLTAGTVSGVASLSVSVNSTALGVTPATVTLNGDSGNLSTTNSTLVAAPVNIEANSSDTSVVTLTLRDNNNNPVTGQTVAFTSTLGTLGNVTEQASGVYTATLTAGTVAGVASLSVNVGGNALGVTPATVTLNGDSGNLSTTNSTLVAAPVNIEANSSDTSVVTLTLRDNNNNPVTGQTVAFTSTLGTLGNVTEQASGVYTATLTAGTVSGVASLSVSVGSSALGVTPATVTLNGDSGNLSTTNSTLVAAPVNIEANNSDTSVVTLTLRDNNNNPVTGQTVAFTSTLGTLGNVTEQASGVYTATLTAGTVSGVASLSVSVNSNALGVTPATVTLNGDSGNLSTTNSTLVAAPVNIEANSSDTSVVTLTLRDNNNNPVTGQTVVFTSTLGTLGNVTEQASGLYTATLTAGTVSGVASLSVSVGGNALGVTGNITLAPGALDAARSILAVNKPSINADDRIGSTITFTAQDAQGNAITGLDIAFMTDLENSQIMTLVDHNDGTYTANINGTQTGIANIAVQSSGATIAGLAATMVTITPGAWNTTQATPVMTVALPITTCQSSSGVYKRYYIGIVTHELYDNYGNEISGILTYNLGAGRYTTVTSQNSSVSGSNGLTRRSNSPVSHFILTSDAYTSQAACYAERIANVNVTITVTAITDDFKTSAVNKVFILGTGSN
For B1, the “glycan array binding signal (z-score)” value is -0.166 in the experiment with Glc(b1-4)Glc; -0.147 with Glc(b1-6)Glc; 0.38 with GlcA(b1-3)Gal; -0.299 with GlcA(b1-3)GlcNAc; 0.048 with GlcA(b1-6)Gal; -0.258 in experiment [1]. Further, the “glycan array binding signal (z-score)” value was -0.081 in experiment [2]; -0.108 in experiment [3]; -0.212 in experiment [4]; -0.218 in experiment [5]; -0.244 in experiment [6]; -0.175 in [7]. Also, the “glycan array binding signal (z-score)” value in [8] was 0.308; in experiment [9] it was -0.246; in experiment [10] it was 1.22; in [11], -0.305; in experiment [12] it was 0.491; in experiment [13] it was 0.186. Besides, the “glycan array binding signal (z-score)” value in experiment [14] is 0.422; in [15], -0.366; in experiment [16] it was -0.286; in experiment [17], -0.085.
